The values below come from the supplement of paper PMC9446081.

About 220 (0.56%) of roughly 39,000 compounds showed activity. Some of the results follow.
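Also: static incubation at 37 °C against the wild-type strain, values averaged over two biological replicates.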

The test system of the assay is Escherichia coli K-12 BW25113. Briefly: relative growth (OD600 normalised to plate interquartile mean) (fraction); higher = less growth inhibition, active = 0.2 or less. The following applies: 50 µM; LB; incubation time: overnight (16-24 h).
Regarding `C[C@H](CO)N1C[C@H](C)[C@H](CN(C)C(=O)c2ccncc2)OCCCC[C@H](C)Oc2ccc(NS(=O)(=O)c3ccc(Cl)cc3)cc2C1=O`, the relative growth is inactive: 0.97.

As to `C[C@@H]1CCCCO[C@H](CN(C)C(=O)NC2CCCCC2)[C@@H](C)CN([C@@H](C)CO)C(=O)c2cc(NC(=O)CCC(F)(F)F)ccc2O1`, the relative growth was inactive: 0.972.

Consider `COCC(=O)Nc1ccc2c(c1)C(=O)N(C)C[C@@H](OC)[C@@H](C)CN(Cc1ccccc1OC)[C@H](C)CO2`, for which the relative growth is inactive: 0.985.

Consider `Cc1noc(C)c1S(=O)(=O)Nc1ccc2c(c1)CC(=O)N([C@H](C)CO)C[C@@H](C)[C@@H](CN(C)Cc1ccc(-c3ccccc3)cc1)O2`, for which the relative growth is inactive: 0.979.

In the case of `COc1ccc(S(=O)(=O)N(C)C[C@H]2Oc3cc(C#CC4CCCC4)ccc3S(=O)(=O)N([C@H](C)CO)C[C@H]2C)cc1`, the relative growth is inactive: 1.04.

As to `CC(=O)N1CCC(C(=O)N2CCC(n3cc(C(C)(C)N)nn3)CC2)CC1`, the relative growth is inactive: 1.02.

In the case of `Cc1ccc(S(=O)(=O)N2C[C@@H](O)COC[C@@H]3O[C@H](CC(=O)N4CCc5ccccc5C4)CC[C@H]32)cc1`, the relative growth was inactive: 1.01.

`COc1ccc(S(=O)(=O)Nc2ccc3c(c2)C(=O)N([C@@H](C)CO)C[C@@H](C)[C@H](CN(C)CC2CCCCC2)OCCCC[C@H](C)O3)cc1`: the relative growth was inactive: 0.989.

For `C[C@@H]1CN([C@H](C)CO)C(=O)Cc2cc(NS(=O)(=O)c3cccs3)ccc2O[C@H]1CN(C)Cc1ccc(Cl)c(Cl)c1`, the relative growth is inactive: 0.998.

With `Cc1noc(C)c1S(=O)(=O)N(C)C[C@@H]1Oc2ccc(NC(=O)CCCN(C)C)cc2C(=O)N([C@H](C)CO)C[C@@H]1C`, the relative growth is inactive: 0.993.

Turning to `COc1ccccc1NC(=O)N(C)C[C@H]1OCc2ccccc2-c2c(n(C)c3ccccc23)C(=O)N([C@@H](C)CO)C[C@H]1C`, the relative growth is inactive: 0.992.

For the compound `C[C@H](CO)N1C[C@H](C)[C@H](CN(C)C(=O)NC2CCCCC2)Oc2ccc(NC(=O)C3CC3)cc2C1=O`, the relative growth is inactive: 1.01.

For `COC(=O)[C@@H](Cc1ccc(-n2cc(COc3ccccc3/C=C(C)/C=C/C(=O)NO)nn2)cc1)N1CC2=C[C@H](C3CC3)n3c(=O)n(C)c(=O)n3[C@@H]2[C@H]1[C@H](O)Cc1ccccc1`, the relative growth was inactive: 1.02.

Consider `CCS(=O)(=O)Nc1ccc2c(c1)C(=O)N(C)[C@H]1CC[C@@H](CC(=O)NCc3ccc(OC)cc3)O[C@@H]1CO2`, for which the relative growth is inactive: 0.967.

Turning to `CC(=O)N1CCC(N)CC1`, the relative growth is inactive: 1.01.

As to `C[C@H](CO)N1C[C@H](C)[C@H](CN(C)S(=O)(=O)c2cccs2)Oc2ccc(NS(=O)(=O)c3cn(C)cn3)cc2CC1=O`, the relative growth is inactive: 1.01.

In the case of `C[C@H]1CN([C@@H](C)CO)C(=O)Cc2cc(NC(=O)Nc3cccc4ccccc34)ccc2O[C@@H]1CN(C)C(=O)NC1CCCCC1`, the relative growth is inactive: 1.01.

Turning to `CC[C@@H]1CN(C(=O)c2ccccn2)N1`, the relative growth is inactive: 1.01.

With `C[C@@H]1CN([C@@H](C)CO)C(=O)c2cc(NS(=O)(=O)c3ccc(Cl)cc3)ccc2O[C@@H](C)CCCCO[C@H]1CN(C)C(=O)Cc1ccccc1`, the relative growth is inactive: 1.03.

With `C[C@@H]1CCCCO[C@H](CN(C)Cc2ccncc2)[C@@H](C)CN([C@H](C)CO)C(=O)c2cc(NC(=O)Nc3ccccc3)ccc2O1`, the relative growth was inactive: 1.01.

`Cc1noc(C)c1NC(=O)Nc1ccc2c(c1)C(=O)N([C@H](C)CO)C[C@@H](C)[C@H](CN(C)S(=O)(=O)c1ccccc1)OCCCC[C@H](C)O2`: the relative growth is inactive: 0.999.

`Cc1cc(=O)oc2cc(O[C@H]3O[C@@H](CO)[C@@H](O)[C@@H](O)[C@@H]3O)ccc12`: the relative growth was inactive: 1.03.

On to `C[C@H](CO)N1C[C@H](C)[C@@H](CN(C)Cc2ccc(Oc3ccccc3)cc2)OCc2ccccc2-c2ccccc2C1=O`, for which the relative growth is inactive: 1.02.

As for `CN(C)S(=O)(=O)N1CCN(CC(=O)Nc2ccc(Br)cc2)CC1`, the relative growth was inactive: 0.966.

On to `C[C@@H]1CCCCO[C@H](CN(C)S(=O)(=O)c2cccs2)[C@H](C)CN([C@@H](C)CO)C(=O)c2cc(NC(=O)Nc3ccc(C(F)(F)F)cc3)ccc2O1`, for which the relative growth is inactive: 0.995.

Take `COCC(=O)Nc1ccc2c(c1)C(=O)N(C)[C@H]1CC[C@@H](CC(=O)NC3Cc4ccccc4C3)O[C@@H]1CO2`: the relative growth is inactive: 1.02.

Consider `C#CCN1C(=O)N(C(=O)c2ccccc2)[C@@]2(COCc3ccc(OC)cc3)Oc3ccccc3[C@@H]1[C@H]2CO[Si](C)(C)C(C)(C)C`, for which the relative growth is inactive: 1.01.

Regarding `C[C@H](CO)N1C[C@H](C)[C@@H](CN(C)S(=O)(=O)c2cccs2)Oc2ccc(NS(C)(=O)=O)cc2CC1=O`, the relative growth is inactive: 1.01.

Consider `CC1(C)CCC2(C(=O)O)CCC3(C)C(=CCC4C5(C)CCC(O)C(C)(C)C5CCC43C)C2C1` (centres undefined), for which the relative growth is inactive: 1.03.

As for `C[C@@H]1CN([C@H](C)CO)C(=O)c2cc(NC(=O)Nc3ccc4c(c3)OCO4)ccc2O[C@@H](C)CCCCO[C@@H]1CN(C)Cc1ccc(C(=O)O)cc1`, the relative growth is inactive: 1.02.

Take `C[C@@H]1CCCCO[C@H](CN(C)Cc2ccccc2)[C@H](C)CN([C@@H](C)CO)C(=O)c2cc(NC(=O)Cc3ccccc3)ccc2O1`: the relative growth is inactive: 1.03.

Turning to `CCC(=O)N(C)C[C@@H]1Oc2ncc(C#C[C@@H](C)O)cc2C(=O)N([C@H](C)CO)C[C@H]1C`, the relative growth was inactive: 1.01.

Consider `C[C@@H]1CN([C@@H](C)CO)S(=O)(=O)c2ccc(-c3cccnc3)cc2O[C@H]1CN(C)CC1CCOCC1`, for which the relative growth was inactive: 1.02.

For the compound `COc1ccc(-c2ccc3cc(C(=O)O)ccc3c2)cc1C12CC3CC(CC(C3)C1)C2`, the relative growth is inactive: 1.02.

As to `Cc1noc(C)c1S(=O)(=O)Nc1ccc2c(c1)C(=O)N([C@@H](C)CO)C[C@H](C)[C@@H](CN(C)C(=O)Nc1ccc(F)cc1)OCCCC[C@@H](C)O2`, the relative growth was inactive: 0.998.

`CCc1nc2ccc(C(=O)Nc3ccc(C(N)=O)cc3)cn2c1N(CC)Cc1cccc(Br)c1`: the relative growth was inactive: 1.01.

As to `C[C@@H]1CN([C@@H](C)CO)C(=O)c2cc(NC(=O)Nc3ccc(F)cc3)ccc2O[C@@H](C)CCCCO[C@@H]1CN(C)S(=O)(=O)c1cccs1`, the relative growth is inactive: 1.03.

Consider `C[C@@H]1CN([C@@H](C)CO)C(=O)c2cccc(NC(=O)Nc3cccc4ccccc34)c2O[C@H]1CN(C)CC1CC1`, for which the relative growth is inactive: 0.963.

For `O=C(C[C@@H]1C=C[C@@H](NC(=O)Nc2ccc3c(c2)OCO3)[C@H](CO)O1)NCCCN1CCOCC1`, the relative growth was inactive: 0.987.

For `C[C@H]1CN([C@@H](C)CO)S(=O)(=O)c2ccc(Br)cc2O[C@H]1CN(C)Cc1ccc(F)cc1`, the relative growth was inactive: 0.981.

For the compound `Cl.Nc1c2c(nc3ccccc13)CCCC2`, the relative growth is inactive: 0.911.

In the case of `COc1cccc(S(=O)(=O)Nc2ccc3c(c2)[C@H]2C[C@@H](CC(=O)NC4CCCCC4)O[C@@H](CO)[C@H]2O3)c1`, the relative growth was inactive: 1.02.

`COc1ccc(S(=O)(=O)N(C)C[C@@H]2Oc3c(NC(=O)Nc4cccc5ccccc45)cccc3C(=O)N(C(C)C)C[C@H]2C)cc1`: the relative growth was inactive: 1.03.

As for `CNC1C(OC2C(OC3C(O)C(O)C(NC(=N)N)C(O)C3NC(=N)N)OC(C)C2(O)CO)OC(CO)C(O)C1O.O=S(=O)(O)O` (centres undefined), the relative growth is active: 0.0643.

Regarding `Cc1noc(C)c1NC(=O)Nc1ccc2c(c1)C(=O)N([C@@H](C)CO)C[C@@H](C)[C@@H](CN(C)C(=O)NC1CCCCC1)OCCCC[C@H](C)O2`, the relative growth was inactive: 0.972.

Consider `COc1ccc(S(=O)(=O)Nc2ccc3c(c2)C(=O)N([C@@H](C)CO)C[C@@H](C)[C@H](CN(C)C(=O)Nc2ccccc2)OCCCC[C@@H](C)O3)cc1`, for which the relative growth is inactive: 1.03.

Consider `COc1ccc(S(=O)(=O)Nc2ccc3c(c2)CC(=O)N([C@H](C)CO)C[C@@H](C)[C@@H](CN(C)S(=O)(=O)c2cccs2)O3)cc1`, for which the relative growth was inactive: 1.03.

`Cc1noc(C)c1S(=O)(=O)N(C)C[C@H]1OCCCC[C@H](C)Oc2ccc(NC(=O)Nc3ccccc3)cc2C(=O)N([C@H](C)CO)C[C@H]1C`: the relative growth is inactive: 0.982.

In the case of `COc1cc(OC)nc([C@@H](NC(=O)C2CCN(CCN3C(=O)c4ccccc4C3=O)CC2)c2ccc(F)cc2)n1`, the relative growth is inactive: 0.998.

Take `CC1=NNC(=O)CC1`: the relative growth is inactive: 1.02.

For the compound `C[C@H]1CN([C@@H](C)CO)C(=O)Cc2cc(NS(=O)(=O)c3ccc(Cl)cc3)ccc2O[C@@H]1CN(C)S(C)(=O)=O`, the relative growth is inactive: 1.01.

With `CC(C)(C)[S@@](=O)N1Cc2cc(C(=O)NCc3ccc4c(c3)OCO4)nc(CCN3CCOCC3)c2[C@H]1CCO`, the relative growth is inactive: 0.995.

In the case of `C[C@@H]1CN([C@@H](C)CO)C(=O)c2cccc(NC(=O)CCCCCC(=O)Nc3ccccc3N)c2O[C@@H]1CN(C)C(=O)Nc1cccc2ccccc12`, the relative growth was inactive: 0.973.

As to `O=C(C[C@H]1C[C@@H]2c3cc(NS(=O)(=O)c4ccc(F)cc4)ccc3O[C@@H]2[C@H](CO)O1)NCc1ccc(Oc2ccccc2)cc1`, the relative growth was inactive: 1.

On to `Cc1noc(C)c1S(=O)(=O)Nc1cccc2c1O[C@@H](CN(C)Cc1ccccc1)[C@@H](C)CN([C@@H](C)CO)C2=O`, for which the relative growth is inactive: 1.01.

With `O=C(C[C@@H]1CC=CC[C@H](NC(=O)OCC2c3ccccc3-c3ccccc32)C(=O)O[C@H](c2ccccc2)CNC1=O)N[C@H](CO)Cc1ccccc1`, the relative growth was inactive: 0.969.

Consider `Cc1cc(F)ccc1S(=O)(=O)N1CCCO[C@@H]1CNC(=O)C(=O)NCc1ccncc1`, for which the relative growth was inactive: 1.

As to `C[C@H](CO)N1C[C@H](C)[C@@H](CN(C)Cc2ccc(-c3ccccc3)cc2)Oc2ccc(NC(=O)NC3CCCCC3)cc2CC1=O`, the relative growth was inactive: 1.01.

With `CCN1CCCC1CNC(=O)c1cc(S(N)(=O)=O)ccc1OC` (centres undefined), the relative growth was inactive: 1.01.
